# Results as given in the supplement of paper PMC3334620.
# In all, about 33,000 sequences were measured (“E-score (-0.5 to 0.5)”: median about -0.054, highest 2% from about 0.39 on). The list shows a part of the results.
# Biological target: Ylr278c (UniProt Q05854)
# Assay: PBM E-score (8-mer binding enrichment) (E-score (-0.5 to 0.5)); higher = stronger / more preferred TF binding; most listed sequences are background and not binding sites
# Conditions: protein concentration: 200 nM; construct: GST-DNA-binding domain
# Procedure, shortened: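 Detection of bound protein used fluorescent anti-GST, with scans normalised by masliner. The proteins were GST-tagged yeast transcription factors applied at about 100-200 nM to universal all-10-mer Agilent arrays made double-stranded by primer extension. Each ungapped eight-base word, pooled with its reverse complement, was scored with an E-score from the Universal PBM Analysis Suite.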
row,Sequence,PBM E-score
1,ACAACCGC,0.147
2,TATCGGCA,0.264
3,CCCCAATC,-0.184
4,TCACCGGA,0.394
5,GGAGAAAC,0.309
6,CGCGGCGC,0.308
7,ACATAGAT,-0.0405
8,CAAGAGAC,-0.231
9,ATCGCTGA,-0.0505
10,CCCCACAC,-0.0908
11,CCCCTTTC,-0.0376
12,ATGTGATG,-0.192
13,ATCAAAGC,0.113
14,TAGCGAAA,-0.136
15,TAGCTACA,-0.164
16,ACAGCTGT,-0.0829
17,TCGGCCGA,0.352
18,TCCAGACA,-0.0585
19,GACTTGTA,-0.0737
20,AGCCCAGG,-0.282
21,AACTGAGT,0.00804
22,CCTCCTCA,-0.231
23,AGACACGC,-0.0238
24,AATGGTAT,-0.0745
25,GAGACGCC,0.18

row,Sequence,PBM E-score
1,GTAACTCA,-0.148
2,CAAACGGA,0.317
3,ACACTGCG,0.00994
4,CTACCTCC,0.185
5,AAGGAGGG,-0.184
6,AAAGTGCA,0.0083
7,ACCCATAC,-0.232
8,ACTGCCCT,-0.112
9,AAAAAGGC,-0.015
10,GCCGGAAA,0.428
11,TAGTCACA,-0.222
12,CTAAGGAG,-0.217
13,CCCGTATC,0.0595
14,GAGCCTCA,-0.171
15,GGTTGCAC,-0.114
16,CATCCTAC,-0.17
17,AGCCACTG,-0.151
18,GAATCTAA,0.0521
19,AGCTGGCC,0.133
20,GATAGGGC,-0.139
21,GCGATTTA,0.0394
22,AAAGGAAT,-0.0742
23,CCCCCGAA,0.184
24,CAGTAGAC,-0.0573
25,GAATTAAC,-0.0862

row,Sequence,PBM E-score
1,GGTGGTTA,0.0673
2,CTGGTTGC,0.123
3,AACACAGA,-0.141
4,CACGGCGC,0.191
5,ACGGCTAT,-0.0187
6,AAAATTGG,-0.00451
7,GGGCTCGA,-0.141
8,CCGTTGTC,0.233
9,CACGCGGC,0.151
10,CAATACTC,-0.0672
11,ATGAGCTC,0.0429
12,CGATGGGC,0.0294
13,CTCTGTTC,-0.0823
14,CTAGAAAA,-0.094
15,GGTAAAAA,0.0218
16,GCTAAAGA,-0.017
17,TCTGATAA,-0.171
18,TATCCAAA,-0.206
19,AAGGACAC,-0.039
20,ACTGTCGC,0.0643
21,GGCTTCGA,-0.0263
22,CACAAAGA,-0.197
23,ACGTAGAT,-0.145
24,AGGACCAC,-0.0997
25,GATTCCAC,0.141

row,Sequence,PBM E-score
1,GTCCTTTA,-0.128
2,GGCGGGAC,0.244
3,ACCTCGTC,0.068
4,CGCGCCAG,0.0693
5,GTGCCTCA,-0.135
6,GGTGGAAA,0.0537
7,GGATAATA,0.164
8,AAAGATTC,-0.0955
9,AAGGTGAC,-0.328
10,GTCGCAAC,-0.0209
11,CTAACATA,-0.0649
12,GGCACGGA,0.279
13,CCTCTCTA,-0.211
14,CTCTTGTA,-0.125
15,GCGCGTGA,0.0222
16,AAAACCAC,-0.0804
17,GGGTACAC,-0.021
18,CTCCATAC,-0.025
19,ACACTAGG,-0.147
20,GACGCTTA,-0.138
21,GAAGCTCC,0.358
22,CCCAAGCA,-0.181
23,CATACAGC,-0.172
24,GCTCCAGC,0.00053
25,AGTCGTAA,-0.0627

row,Sequence,PBM E-score
1,GCCACGGC,0.036
2,GGGAGCAA,-0.00688
3,ACTTACGA,-0.142
4,AGGGTGGA,-0.201
5,ATAGTATG,-0.00786
6,ATAACCTC,-0.0638
7,CAGTGTAG,-0.16
8,CACCCGCC,0.163
9,GGAACTAC,0.0892
10,CGGGAAGC,0.129
11,GAAAAACA,-0.0615
12,CCCTGGCA,-0.0965
13,TAGGAGGA,-0.151
14,ACCTCAAA,-0.0594
15,CTTACGGC,0.0961
16,AAACCGGA,0.438
17,AACCTTTA,-0.149
18,CCGTCCTC,0.168
19,GCTTTGCA,-0.163
20,CTGGCGCA,-0.242
21,AACACCCC,-0.00988
22,CCAAGTAA,-0.116
23,GTGCCCAC,-0.133
24,CTTTTAGA,-0.105
25,GACGAGTA,-0.0638

row,Sequence,PBM E-score
1,AGAGTTAT,-0.036
2,GACACAGC,-0.024
3,CCCCCGCC,0.235
4,CGATGTCA,-0.135
5,AACGCTAG,-0.117
6,CCATCATC,-0.113
7,ACGTCTCT,-0.173
8,AGAACGAG,-0.06
9,TCCAGGCA,-0.129
10,ATATATAT,0.158
11,GCTCACAA,-0.122
12,ATATCAAC,-0.0612
13,CGTCCAAC,-0.136
14,CTAGGCTC,-0.163
15,ACCGCGTG,0.0856
16,AAGACACA,-0.223
17,GTCCCGAA,0.0873
18,CAGCATGA,-0.121
19,AAATATCT,0.00279
20,ACCGGGTA,0.219
21,GAGCACGC,-0.106
22,AAAGTCGA,-0.18
23,AACACGCT,-0.0413
24,AATCATAC,-0.129
25,ACCGTCTA,-0.0357

row,Sequence,PBM E-score
1,CTGTGTCC,-0.00541
2,CTTTTCTC,-0.138
3,ACTCTAGC,-0.0958
4,ACTCGGTA,-0.0549
5,AAGATCAG,-0.272
6,TAGCCCTA,-0.236
7,CCTATTCG,0.0985
8,CTCTGATA,0.00527
9,CGCGCAGC,0.0441
10,CAAGTCTA,-0.218
11,TAGGGCGA,-0.155
12,TAATGAGA,-0.304
13,CCTGGTCC,0.0539
14,AGTGATTA,0.0438
15,AATCTGAC,-0.133
16,CCCTCCGA,0.405
17,GGCTCTCA,-0.112
18,CATACTTA,-0.265
19,CGACTATC,-0.0738
20,ATAGAAAT,0.0866
21,ATCCCCAA,-0.0668
22,GGAGCGAA,0.0989
23,ATGGCATC,-0.00077
24,AGATTTCA,-0.0357
25,TATTAAGA,-0.106

row,Sequence,PBM E-score
1,GTATTTGA,-0.0847
2,ATCTATTC,-0.0659
3,CCTGTTCC,-0.0187
4,CGTCGCAC,0.127
5,ACGGGATG,0.0373
6,CGGTACGC,0.129
7,GGGCAGTA,-0.00183
8,GGGTCACA,-0.225
9,CGCCATAA,-0.153
10,GAGAACAC,0.0185
11,GAACCACA,-0.0927
12,TCGAAGCA,-0.245
13,ACCCAGAT,-0.16
14,ATAAGTCC,0.236
15,GACGTGAC,-0.126
16,CGGACGTC,0.338
17,TACGGACA,0.257
18,AGAATGTC,-0.183
19,ATCTTGTA,-0.0397
20,TACACGCA,-0.227
21,TAAGCCAA,-0.159
22,ACACAATA,-0.069
23,GACAGTGA,-0.162
24,GAAAGCGA,0.00637
25,AACTGCTA,-0.1

row,Sequence,PBM E-score
1,AGCCTCTG,-0.212
2,GATCTAGA,-0.165
3,ACATCCAT,-0.154
4,AACTAAGA,-0.117
5,CCCAAAGA,-0.123
6,CAGGTGTC,-0.0869
7,CATTATCA,-0.208
8,ACCGCTAA,-0.0014
9,AGACAATA,0.0684
10,AGCGAAAG,-0.211
11,AATTTAAT,-0.0612
12,GCGAGAGC,0.0507
13,GCAAATGA,-0.133
14,AATTTGCT,-0.0771
15,CAAATGCA,-0.347
16,TAGTATGA,-0.0268
17,CGAAAGAG,-0.0312
18,CCGAGCCA,0.266
19,TCAGGAAA,-0.0178
